{"source": "the supplement of paper PMC3334620", "note": "Whole data set: some 33,000 sequences, median “E-score (-0.5 to 0.5)” near -0.017, cut for the highest 2% near 0.3. The list shows a part of the results."}
{"molecular_target": "T1, Sut1 (UniProt P53032)", "T1 sequence": "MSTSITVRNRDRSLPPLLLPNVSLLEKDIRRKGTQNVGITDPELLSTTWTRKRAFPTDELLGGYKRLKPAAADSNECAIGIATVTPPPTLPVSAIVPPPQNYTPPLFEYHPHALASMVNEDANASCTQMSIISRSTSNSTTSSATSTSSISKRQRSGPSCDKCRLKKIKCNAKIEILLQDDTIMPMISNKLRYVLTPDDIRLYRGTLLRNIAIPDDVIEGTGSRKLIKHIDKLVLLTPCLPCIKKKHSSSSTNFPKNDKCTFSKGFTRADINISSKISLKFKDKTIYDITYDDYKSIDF", "test": "PBM E-score (8-mer binding enrichment) (E-score (-0.5 to 0.5)); higher = stronger / more preferred TF binding; most listed sequences are background and not binding sites", "details": "protein concentration: 200 nM; construct: GST-full length", "experimental": "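Universal 'all 10-mer' protein binding microarrays (Agilent AMADID 015681) probed with GST-tagged S. cerevisiae TFs (full-length or DBD) made by in vitro transcription/translation (PURExpress), about 100-200 nM. Bound TF was detected with fluorescent anti-GST. Each ungapped 8-mer (which stands for itself and its reverse complement) is scored by the PBM enrichment score (E-score), a modified Wilcoxon-Mann-Whitney statistic from -0.5 to +0.5, computed with the Universal PBM Analysis Suite. Scale: above 0.35 generally sequence-specific binding.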"}
{"sequence": "ACAATACT", "PBM E-score": 0.0977}
{"sequence": "CTTGCTGA", "PBM E-score": -0.0969}
{"sequence": "CACCGCCC", "PBM E-score": -0.182}
{"sequence": "CCTATAGG", "PBM E-score": -0.265}
{"sequence": "ACACGGAT", "PBM E-score": 0.0295}
{"sequence": "CGAGTGTA", "PBM E-score": -0.189}
{"sequence": "CGCGAGTC", "PBM E-score": -0.0475}
{"sequence": "GCAAACCC", "PBM E-score": -0.0925}
{"sequence": "AAACGGGT", "PBM E-score": 0.0207}
{"sequence": "GTAAGGGA", "PBM E-score": -0.0702}
{"sequence": "CTTAATCA", "PBM E-score": 0.171}
{"sequence": "ACGACATA", "PBM E-score": -0.19}
{"sequence": "AACGTTGC", "PBM E-score": -0.121}
{"sequence": "AGCAGCGA", "PBM E-score": -0.0229}
{"sequence": "AAACAGGA", "PBM E-score": -0.0964}
{"sequence": "GATCAATC", "PBM E-score": -0.117}
{"sequence": "GCCAACGC", "PBM E-score": -0.19}
{"sequence": "CAGCGCTG", "PBM E-score": -0.0402}
{"sequence": "CCGTAGGA", "PBM E-score": -0.163}
{"sequence": "CTACTAGA", "PBM E-score": -0.0398}
{"sequence": "CCCTTTAG", "PBM E-score": -0.175}
{"sequence": "CTAACCAG", "PBM E-score": -0.0356}
{"sequence": "CAAATATG", "PBM E-score": -0.00478}
{"sequence": "TAATGCAA", "PBM E-score": -0.042}
{"sequence": "ATCTCTCC", "PBM E-score": -0.0902}
{"sequence": "AAGACGAA", "PBM E-score": 0.0901}
{"sequence": "CCGACAGC", "PBM E-score": 0.00168}
{"sequence": "ATACGAAG", "PBM E-score": 0.105}
{"sequence": "AAATAAAC", "PBM E-score": 0.274}
{"sequence": "GACCGCCC", "PBM E-score": -0.134}
{"sequence": "AAGTCTGT", "PBM E-score": -0.0602}
{"sequence": "CTACCGTA", "PBM E-score": 0.0306}
{"sequence": "ACCGTTTC", "PBM E-score": -0.06}
{"sequence": "CGGGTTGC", "PBM E-score": -0.144}
{"sequence": "AGGTGTAT", "PBM E-score": -0.0667}
{"sequence": "CTACTCCC", "PBM E-score": -0.139}
{"sequence": "ATGATATA", "PBM E-score": 0.153}
{"sequence": "CTTGGGAC", "PBM E-score": -0.224}
{"sequence": "CGTAAACG", "PBM E-score": -0.196}
{"sequence": "ACGGTTAC", "PBM E-score": 0.0273}
{"sequence": "ATAGCACA", "PBM E-score": 0.083}
{"sequence": "AGGGGATA", "PBM E-score": -0.261}
{"sequence": "CCTTAACA", "PBM E-score": -0.112}
{"sequence": "AGAGTCTC", "PBM E-score": -0.0242}
{"sequence": "CCGCAATC", "PBM E-score": 0.128}
{"sequence": "ATTTAGTG", "PBM E-score": 0.196}
{"sequence": "TAATAGCA", "PBM E-score": -0.0305}
{"sequence": "ATCTTCCG", "PBM E-score": 0.126}
{"sequence": "ACCGATCT", "PBM E-score": -0.0267}
{"sequence": "AAGCATCG", "PBM E-score": 0.0311}
{"sequence": "CGATGAAG", "PBM E-score": 0.0664}
{"sequence": "AGACGAAT", "PBM E-score": 0.0727}
{"sequence": "GCCCCCGA", "PBM E-score": -0.227}
{"sequence": "ATTTCTTA", "PBM E-score": 0.0841}
{"sequence": "ACTGTTGG", "PBM E-score": -0.0953}
{"sequence": "ATACAAAT", "PBM E-score": 0.312}
{"sequence": "ACGGCTTC", "PBM E-score": -0.0566}
{"sequence": "GAGAATGA", "PBM E-score": 0.15}
{"sequence": "GTTGATAA", "PBM E-score": 0.197}
{"sequence": "GGCCTCCA", "PBM E-score": -0.306}
{"sequence": "CGACCACG", "PBM E-score": -0.0702}
{"sequence": "CTGCAGCC", "PBM E-score": -0.287}
{"sequence": "GTCCGCGA", "PBM E-score": 0.347}
{"sequence": "ATCGCCGC", "PBM E-score": 0.0642}
{"sequence": "AAGGTGCC", "PBM E-score": -0.119}
{"sequence": "CTGACAAC", "PBM E-score": -0.213}
{"sequence": "AGTATGGC", "PBM E-score": -0.25}
{"sequence": "AGGTTTCG", "PBM E-score": -0.0234}
{"sequence": "ATCAGGAC", "PBM E-score": -0.0525}
{"sequence": "AAGCTGAA", "PBM E-score": 0.0914}
{"sequence": "GGAGCACC", "PBM E-score": -0.167}
{"sequence": "ACTTGCCG", "PBM E-score": -0.0958}
{"sequence": "ATCGAGTG", "PBM E-score": 0.0131}
{"sequence": "GTGTGACA", "PBM E-score": -0.182}
{"sequence": "CGGATCGC", "PBM E-score": -0.0447}
{"sequence": "GGACGGCA", "PBM E-score": -0.0542}
{"sequence": "ATTTCTCC", "PBM E-score": 0.131}
{"sequence": "AACTTTCT", "PBM E-score": 0.16}
{"sequence": "ATAGTAGC", "PBM E-score": 0.134}
{"sequence": "CGTGGCCA", "PBM E-score": -0.322}
{"sequence": "GGAAGGCA", "PBM E-score": -0.0759}
{"sequence": "CCATTTTA", "PBM E-score": 0.178}
{"sequence": "AATGCGCC", "PBM E-score": 0.00412}
{"sequence": "CGCATGAG", "PBM E-score": -0.339}
{"sequence": "AACGTATA", "PBM E-score": 0.0992}
{"sequence": "ATTCGTCG", "PBM E-score": 0.132}
{"sequence": "ATTACAAT", "PBM E-score": 0.151}
{"sequence": "TGGTGTAA", "PBM E-score": -0.0711}
{"sequence": "AACTAAAA", "PBM E-score": 0.31}
{"sequence": "AAACTACG", "PBM E-score": 0.072}
{"sequence": "CACTCCCA", "PBM E-score": -0.0412}
{"sequence": "CGGAAAAC", "PBM E-score": 0.283}
{"sequence": "CATAGATC", "PBM E-score": -0.108}
{"sequence": "CCCCTCGC", "PBM E-score": -0.28}
